Measured values as given in publication PMC9911399, “Two distinct binding modes provide the RNA-binding protein RbFox with extraordinary sequence specificity”.
Changes are numbered by the printed parent chain; changes in the protein carry UniProt numbers. The list shows a part of the results.

How the values were obtained:
[1] = target: T1, RBFOX1 RRM (Homo sapiens, UniProt Q9NWB1 109-208); experiment: EMSA; HiTS-Eq, 1 nM pool, 10 min; buffer printed only for the single-RNA assays: 10 mM Tris pH 7.5, 150 mM NaCl, 3.4 mM EDTA, 0.001% NP-40, 30 C; conditions: tags: His6 N-terminal (pET28a); label: 5' 32P
T1 sequence: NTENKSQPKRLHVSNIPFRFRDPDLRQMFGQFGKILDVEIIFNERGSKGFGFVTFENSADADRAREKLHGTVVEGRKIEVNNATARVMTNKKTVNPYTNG
Procedure, shortened: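 A pool of RNA with 7 randomized nucleotides, 5′-radiolabelled and with DNA-annealed flanks, was equilibrated at 1 nM for 10 min in 50 µL with purified RbFox RRM, wild type or mutant, across increasing protein concentrations. Free RNA was separated by 8% native PAGE, excised, reverse-transcribed, barcoded by PCR and sequenced. Relative association constants were obtained from read-count changes of each RNA species versus the control reaction and normalised to the cognate motif.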

[2] = target: T1, RBFOX1 RRM; experiment: competition; 10 mM Tris pH 7.5, 150 mM NaCl, 3.4 mM EDTA, 0.001% NP-40, 30 C; conditions: tags: His6 N-terminal (pET28a)

B1: GCAACAC (DNA:RNA)
RNA: GGGAGACCGGAAUUCAGAUUGUCCGCAACACUUAAAUCCCGUCGUAGCCACCA
DNA 1: CAATCTGAATTCCGGTCTCCC
DNA 2: TGGTGGCTACGACGGGATT
binding signal [1]: 0.00714 KA relative to UGCAUGU

B2: GACGUCC (DNA:RNA)
RNA: B1 RNA with C26A, A27C, A28G, C29U, A30C
DNA 1: CAATCTGAATTCCGGTCTCCC
DNA 2: TGGTGGCTACGACGGGATT
binding signal [1]: 0.0106 KA relative to UGCAUGU

B3: ACGAGCC (DNA:RNA)
RNA: B1 RNA with G25A, A27G, C29G, A30C
DNA 1: CAATCTGAATTCCGGTCTCCC
DNA 2: TGGTGGCTACGACGGGATT
binding signal [1]: 0.0049 KA relative to UGCAUGU

B4: GGACAGC (DNA:RNA)
RNA: B1 RNA with C26G, A28C, C29A, A30G
DNA 1: CAATCTGAATTCCGGTCTCCC
DNA 2: TGGTGGCTACGACGGGATT
binding signal [1]: 0.0294 KA relative to UGCAUGU

B5: AAAACUG (DNA:RNA)
RNA: B1 RNA with G25A, C26A, A30U, C31G
DNA 1: CAATCTGAATTCCGGTCTCCC
DNA 2: TGGTGGCTACGACGGGATT
binding signal [1]: 0.00327 KA relative to UGCAUGU

B6: UCUAUCU (DNA:RNA)
RNA: B1 RNA with G25U, A27U, C29U, A30C, C31U
DNA 1: CAATCTGAATTCCGGTCTCCC
DNA 2: TGGTGGCTACGACGGGATT
binding signal [1]: 0.00434 KA relative to UGCAUGU

B7: CUAUUGA (DNA:RNA)
RNA: B1 RNA with G25C, C26U, A28U, C29U, A30G, C31A
DNA 1: CAATCTGAATTCCGGTCTCCC
DNA 2: TGGTGGCTACGACGGGATT
binding signal [1]: 0.0108 KA relative to UGCAUGU

B8: GCCCCUC (DNA:RNA)
RNA: B1 RNA with A27C, A28C, A30U
DNA 1: CAATCTGAATTCCGGTCTCCC
DNA 2: TGGTGGCTACGACGGGATT
binding signal [1]: 0.00515 KA relative to UGCAUGU

B9: GCAUGCC (DNA:RNA)
RNA: B1 RNA with A28U, C29G, A30C
DNA 1: CAATCTGAATTCCGGTCTCCC
DNA 2: TGGTGGCTACGACGGGATT
binding signal [1]: 0.829 KA relative to UGCAUGU

B10: AGCCAGA (DNA:RNA)
RNA: GGGAGACCGGAAUUCAGAUUGUCCAGCCAGAUUAAAUCCCGUCGUAGCCACCA
DNA 1: CAATCTGAATTCCGGTCTCCC
DNA 2: TGGTGGCTACGACGGGATT
binding signal [1]: 0.0106 KA relative to UGCAUGU

UGCAUAU (ssRNA)
binding signal [2]: 1780 nM

B11: GGCCGUU (DNA:RNA)
RNA: B10 RNA with A25G, A29G, G30U, A31U
DNA 1: CAATCTGAATTCCGGTCTCCC
DNA 2: TGGTGGCTACGACGGGATT
binding signal [1]: 0.0141 KA relative to UGCAUGU

B12: UGGCUUA (DNA:RNA)
RNA: B10 RNA with A25U, C27G, A29U, G30U
DNA 1: CAATCTGAATTCCGGTCTCCC
DNA 2: TGGTGGCTACGACGGGATT
binding signal [1]: 0.0196 KA relative to UGCAUGU

B13: CAACGUC (DNA:RNA)
RNA: B1 RNA with G25C, C26A, A28C, C29G, A30U
DNA 1: CAATCTGAATTCCGGTCTCCC
DNA 2: TGGTGGCTACGACGGGATT
binding signal [1]: 0.00397 KA relative to UGCAUGU

B14: CACAUUG (DNA:RNA)
RNA: B10 RNA with A25C, G26A, C28A, A29U, G30U, A31G
DNA 1: CAATCTGAATTCCGGTCTCCC
DNA 2: TGGTGGCTACGACGGGATT
binding signal [1]: 0.00617 KA relative to UGCAUGU

B15: CGCGUUA (DNA:RNA)
RNA: B10 RNA with A25C, C28G, A29U, G30U
DNA 1: CAATCTGAATTCCGGTCTCCC
DNA 2: TGGTGGCTACGACGGGATT
binding signal [1]: 0.00577 KA relative to UGCAUGU

B16: ACUCGUU (DNA:RNA)
RNA: B10 RNA with G26C, C27U, A29G, G30U, A31U
DNA 1: CAATCTGAATTCCGGTCTCCC
DNA 2: TGGTGGCTACGACGGGATT
binding signal [1]: 0.00477 KA relative to UGCAUGU

B17: CACUGGG (DNA:RNA)
RNA: B10 RNA with A25C, G26A, C28U, A29G, A31G
DNA 1: CAATCTGAATTCCGGTCTCCC
DNA 2: TGGTGGCTACGACGGGATT
binding signal [1]: 0.0063 KA relative to UGCAUGU

B18: CUGUGAA (DNA:RNA)
RNA: B10 RNA with A25C, G26U, C27G, C28U, A29G, G30A
DNA 1: CAATCTGAATTCCGGTCTCCC
DNA 2: TGGTGGCTACGACGGGATT
binding signal [1]: 0.0116 KA relative to UGCAUGU

B19: UCAUCAA (DNA:RNA)
RNA: B1 RNA with G25U, A28U, C31A
DNA 1: CAATCTGAATTCCGGTCTCCC
DNA 2: TGGTGGCTACGACGGGATT
binding signal [1]: 0.00154 KA relative to UGCAUGU

B20: GCCGGGG (DNA:RNA)
RNA: B10 RNA with A25G, G26C, C28G, A29G, A31G
DNA 1: CAATCTGAATTCCGGTCTCCC
DNA 2: TGGTGGCTACGACGGGATT
binding signal [1]: 0.0252 KA relative to UGCAUGU

B21: GUGCAGA (DNA:RNA)
RNA: B10 RNA with A25G, G26U, C27G
DNA 1: CAATCTGAATTCCGGTCTCCC
DNA 2: TGGTGGCTACGACGGGATT
binding signal [1]: 0.0216 KA relative to UGCAUGU

B22: CUCGGAA (DNA:RNA)
RNA: B10 RNA with A25C, G26U, C28G, A29G, G30A
DNA 1: CAATCTGAATTCCGGTCTCCC
DNA 2: TGGTGGCTACGACGGGATT
binding signal [1]: 0.00851 KA relative to UGCAUGU

B23: GAAUCCC (DNA:RNA)
RNA: B1 RNA with C26A, A28U, A30C
DNA 1: CAATCTGAATTCCGGTCTCCC
DNA 2: TGGTGGCTACGACGGGATT
binding signal [1]: 0.0102 KA relative to UGCAUGU

B24: CCUUUUU (DNA:RNA)
RNA: B1 RNA with G25C, A27U, A28U, C29U, A30U, C31U
DNA 1: CAATCTGAATTCCGGTCTCCC
DNA 2: TGGTGGCTACGACGGGATT
binding signal [1]: 0.00705 KA relative to UGCAUGU

B25: UCCUGAA (DNA:RNA)
RNA: B10 RNA with A25U, G26C, C28U, A29G, G30A
DNA 1: CAATCTGAATTCCGGTCTCCC
DNA 2: TGGTGGCTACGACGGGATT
binding signal [1]: 0.0155 KA relative to UGCAUGU

B26: GGUUUUG (DNA:RNA)
RNA: B10 RNA with A25G, C27U, C28U, A29U, G30U, A31G
DNA 1: CAATCTGAATTCCGGTCTCCC
DNA 2: TGGTGGCTACGACGGGATT
binding signal [1]: 0.0205 KA relative to UGCAUGU

B27: CAAUCGU (DNA:RNA)
RNA: B1 RNA with G25C, C26A, A28U, A30G, C31U
DNA 1: CAATCTGAATTCCGGTCTCCC
DNA 2: TGGTGGCTACGACGGGATT
binding signal [1]: 0.00595 KA relative to UGCAUGU

B28: GUUGUCA (DNA:RNA)
RNA: B10 RNA with A25G, G26U, C27U, C28G, A29U, G30C
DNA 1: CAATCTGAATTCCGGTCTCCC
DNA 2: TGGTGGCTACGACGGGATT
binding signal [1]: 0.0142 KA relative to UGCAUGU

B29: AUAAGAU (DNA:RNA)
RNA: B1 RNA with G25A, C26U, C29G, C31U
DNA 1: CAATCTGAATTCCGGTCTCCC
DNA 2: TGGTGGCTACGACGGGATT
binding signal [1]: 0.00408 KA relative to UGCAUGU

B30: AACAAGU (DNA:RNA)
RNA: B10 RNA with G26A, C28A, A31U
DNA 1: CAATCTGAATTCCGGTCTCCC
DNA 2: TGGTGGCTACGACGGGATT
binding signal [1]: 0.00231 KA relative to UGCAUGU
